Screen size: about 310,000 compounds; about 2,200 (0.71%) showed an effect of 50% or more. Effects have a minus sign here. The list shows a part of the results.
Target: human ether-à-go-go-related gene (hERG) potassium channel (human, UniProt Q12809)
Test: primary screen, population patch clamp on CHO cells stably expressing hERG

human ether-à-go-go-related gene (hERG) potassium channel, sequence (Q12809 whole entry, looked up): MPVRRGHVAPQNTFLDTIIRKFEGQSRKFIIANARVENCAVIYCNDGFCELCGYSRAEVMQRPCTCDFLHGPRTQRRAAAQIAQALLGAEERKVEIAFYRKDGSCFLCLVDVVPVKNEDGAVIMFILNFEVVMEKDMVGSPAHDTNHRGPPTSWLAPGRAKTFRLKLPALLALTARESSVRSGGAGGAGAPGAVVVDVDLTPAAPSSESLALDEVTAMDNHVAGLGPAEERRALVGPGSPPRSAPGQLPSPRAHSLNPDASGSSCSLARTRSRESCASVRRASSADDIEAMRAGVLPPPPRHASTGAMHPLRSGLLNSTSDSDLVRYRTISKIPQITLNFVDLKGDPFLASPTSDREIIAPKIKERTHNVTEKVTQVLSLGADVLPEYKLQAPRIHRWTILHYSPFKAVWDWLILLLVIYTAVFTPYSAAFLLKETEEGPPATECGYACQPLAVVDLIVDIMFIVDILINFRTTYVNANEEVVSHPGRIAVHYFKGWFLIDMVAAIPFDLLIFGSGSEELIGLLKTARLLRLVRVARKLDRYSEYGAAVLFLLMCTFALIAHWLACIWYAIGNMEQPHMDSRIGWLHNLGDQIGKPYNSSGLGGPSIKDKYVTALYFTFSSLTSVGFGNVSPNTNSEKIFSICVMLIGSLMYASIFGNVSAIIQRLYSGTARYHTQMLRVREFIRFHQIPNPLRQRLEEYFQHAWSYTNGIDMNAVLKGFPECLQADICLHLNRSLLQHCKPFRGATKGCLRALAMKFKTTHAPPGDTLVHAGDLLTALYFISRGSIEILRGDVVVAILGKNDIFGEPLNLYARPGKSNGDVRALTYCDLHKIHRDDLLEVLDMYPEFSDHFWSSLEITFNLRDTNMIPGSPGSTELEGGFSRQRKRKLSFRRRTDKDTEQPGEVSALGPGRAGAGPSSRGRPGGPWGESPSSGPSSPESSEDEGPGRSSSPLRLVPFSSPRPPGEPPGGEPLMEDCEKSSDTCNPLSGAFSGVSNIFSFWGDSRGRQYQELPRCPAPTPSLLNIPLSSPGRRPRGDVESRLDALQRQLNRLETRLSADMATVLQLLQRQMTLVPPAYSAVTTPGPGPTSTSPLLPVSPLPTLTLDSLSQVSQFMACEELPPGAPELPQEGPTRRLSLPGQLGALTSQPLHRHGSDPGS

SMILES	hERG current change (%, negative = inhibition) at 1uM
CCOC(=O)N1CCN(C(=O)CSc2ncnc3ccccc23)CC1	-5.95%
Cc1ccc(NC(=S)Nc2cc(-c3ccccc3)[nH]n2)cc1Cl	10.5%
COc1ccc(/C=N/OCc2ccccc2C#N)c(OC)c1	15.6%
Cc1ccsc1C=C1C(=O)c2ccccc2C1=O	17.8%
CS(=O)(=O)c1nc(S(=O)(=O)c2ccc(Cl)cc2)c(N2CCCCCC2)s1	11%
CSc1nc2nc(C)cc(-c3ccccc3)n2n1	0.859%
CCOCCCNCC(=O)Nc1ccc(OC(F)(F)F)cc1.Cl	-13.5%
CCOc1cccc(C(=O)NC2CCCCC2)c1	-4.29%
CCN1CCN(c2ncnc3scc(-c4ccc(C)c(C)c4)c23)CC1	-50.8%
CC(=O)NCCNC(=O)CCNC(=O)c1ccc(Cl)cc1	10.3%
CCOc1ccc(C(C)=O)cc1Cn1c(=O)oc2ccccc21	14.3%
CSc1nc2ccc3nc(NC(=O)c4ccc(C)cc4)sc3c2s1	11%
CCOc1ccc(C(=O)NCC(=O)OCc2c(C)noc2C)cc1	6.96%
CC(=O)c1c(C)[nH]c(C(=O)OCc2ccccc2F)c1C	2.11%
CC1CCC2(CC1)NC(=O)N(CC(=O)N(Cc1ccccc1)C(C)(C)C)C2=O (centres unmarked)	13.4%
COc1cccc(NC2=C(Cl)C(=O)OC2OC(=O)c2ccco2)c1 (centres unmarked)	8.22%
O=C(OCC(=O)N1CCc2ccccc21)c1ccccc1[N+](=O)[O-]	7.79%
O=C(COc1ccccc1)Nc1ccccc1F	9.15%
Cc1nnc(NC(=O)c2ccc(S(=O)(=O)N3CC(C)CC(C)C3)cc2)o1 (centres unmarked)	12.9%

SMILES	hERG current change (%, negative = inhibition) at 1uM
O=C(CN(Cc1cccs1)C(=O)CNS(=O)(=O)c1ccc(Cl)cc1)NCC1CCCO1 (centres unmarked)	8.49%
O=C(NNc1nc(-c2ccccc2)cs1)c1ccccc1	14%
Cc1ccc(-n2ccc(=O)c(C(=O)Nc3ccc(S(=O)(=O)N4CCOCC4)cc3)n2)cc1	9.71%
CC(C)(C)NC(=O)NC(=O)COC(=O)c1cccc(S(=O)(=O)N2CCCCC2)c1	4.37%
O=C1CC(C(=O)O)S/C(=N\NC(=O)c2ccc(F)cc2)N1 (centres unmarked)	1.14%
CC1(C)CC(=O)c2cc(N=C/C(C(=O)c3ccccc3)=C(\O)c3ccccc3)c(=O)oc2C1	9.14%
Cc1cc(C(=O)OCC(=O)c2ccc(Br)s2)c(C)o1	4.75%
c1ccc(CNc2ncnc3sc4c(c23)CCCC4)nc1	2.28%
CC(/C=N/NC(=O)c1nnn(-c2nonc2N)c1CN1CCCCC1)c1ccccc1 (centres unmarked)	12.1%
Cc1nc2ccccc2c2c1C(=O)N(c1cccc(C(=O)O)c1)C2=O	17.7%
Clc1ccc(Cl)c(OCc2cc(-c3ccccc3Cl)on2)c1	15.8%
Nc1ccc(-c2ccc(C(=O)O)s2)cn1	12.5%
O=C(Nc1ccc2c(c1)OCCO2)C1CCCN(S(=O)(=O)c2cccs2)C1 (centres unmarked)	10.7%
COc1ccccc1OCc1ccc(C(=O)NN)o1	15.6%
CCc1n[nH]c(=S)n1/N=C/c1ccc2c(c1)OCO2	8.4%
C[N+](C)(C)CC(=O)Nc1ccc(Cl)cc1C(=O)c1ccccc1.[Br-]	12.2%
Cc1cc(CNC(=O)c2cccnc2Cl)c2ccccc2n1	-5.22%
O=C(NCc1nc(-c2ccccc2)no1)c1ccc(Br)o1	8.02%
COc1ccc(CN(C(=O)c2snc(C(N)=O)c2N)C(CC(C)C)C(=O)NC2CCCCC2)cc1 (centres unmarked)	6.86%

SMILES	hERG current change (%, negative = inhibition) at 1uM
O=C(O)CCCC(=O)Nc1ccccc1C(=O)N1CCOCC1	14.3%
NC(=O)c1ccccc1N/C=C/C(=O)c1ccco1	14.4%
NC(=O)CN(N=Nc1cccc([N+](=O)[O-])c1)c1cccc([N+](=O)[O-])c1	1.36%
O=C(CCN1C(=O)C2C3C=CC(C3)C2C1=O)Nc1ccc(F)cc1 (centres unmarked)	5.83%
CCCn1c(SCC(=O)NCC)nc2sc3c(c2c1=O)CCC3	7.52%
COc1cc2c(cc1OC)CN(C(=O)Cc1ccc(OC)c(S(=O)(=O)N3CCOCC3)c1)CC2	-1.16%
O=C(Nc1ccccc1)[C@@H]1CC=C[C@@H]2CCN(Cc3ccccc3)C(=O)[C@@H]21	10.9%
CN(c1ccccc1)S(=O)(=O)c1cccc(NC(=O)CCNC(=O)c2ccc(Cl)cc2)c1	4.55%
CCO[C@@H]1OC(C(=O)NCc2nc3ccccc3[nH]2)=C[C@H](c2coc3ccccc3c2=O)[C@H]1CCCO	6.96%
COc1ccc(C(=O)NCCC(=O)NCc2cc(=O)n(C)c(=O)n2C)cc1	18.1%
S=C(NC1CCCCC1)N1CCOCCOCCN(C(=S)NC2CCCCC2)CCOCC1	12.1%
CCN1C[C@]2(C)CC[C@H](O)[C@]34C1[C@H](C[C@H]23)[C@@]1(O)C[C@H](OC)[C@H]2C[C@@H]4[C@@H]1C2O (some centres unmarked)	13%
CCn1c(SCC(=O)Nc2ccc3c(c2)OCO3)nnc1-c1ccccc1O	17.2%
COc1cccc(CN(CC2CCCO2)S(=O)(=O)c2ccc(-n3cnnn3)c(OC)c2)c1 (centres unmarked)	1.58%
CCC(=O)N1CCc2cc(S(=O)(=O)NC(CC(C)C)C(=O)N3CCc4ccccc43)ccc21 (centres unmarked)	-9.56%
S=c1[nH]c2ccccc2o1	7.26%
COc1ccc(Nc2ncnc3ccccc23)c(OC)c1.Cl	-0.118%
CC(=O)c1ccc(S(=O)(=O)N2CCN(C(=O)c3ccc(-n4cncn4)c([N+](=O)[O-])c3)CC2)cc1	11.3%

— article PMC4336329 (PLoS ONE, 2015)
